Experimental data: PubChem BioAssay AID686979 (National Center for Advancing Translational Sciences (NCATS), 2013)
“And” between values parts separate entries of the source, which are not always exact repeats. Equal values may be shown once. In all, about 420,000 compounds went through this assay and about 50,000 (12%) were called active. Inconclusive results, whose numbers are uncertain, are shown with a selection of clear calls. Calls follow the shape of the dose curve; as a rule, active = well fitted inhibition curve with a large enough effect; inconclusive = small, poorly fitted or top-dose-only effect; inactive = flat fitted curve, though single readings scatter. No potency is given beside an inconclusive call; the fits are too rough.

Experiment: qHTS for Inhibitors of human tyrosyl-DNA phosphodiesterase 1 (TDP1): qHTS in cells in presence of CPT; also: nearly all actives have a fitted effect of over 55% in size
Settings: chicken DT40 Tdp1-/-;hTDP1 cells + 20 nM CPT, ATP luminescence, 48 h; series mostly up to 46.2 µM
Summary of the method: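 Chicken DT40 Tdp1-/- cells complemented with human TDP1, 400 cells/well, exposed to compounds plus 20 nM camptothecin for at least 48 h at 37 C; viability read as ATP content by CellTiter-Glo luminescence.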
Potency is read from the fitted curve at half-maximal effect; tags tell the direction and shape of the fitted curve.

SMILES	Potency
Cc1ccc2nc3c(cc(C#N)c(=O)n3-c3nnc(SCc4ccccc4Cl)s3)c(=O)n2c1	inactive
Cc1nc(C(=O)O)cc2c1[nH]c1ccccc12	inactive
COc1cc([C@@H]2c3cc4c(cc3[C@@H](O[C@@H]3O[C@@H]5CO[C@@H](C)O[C@H]5[C@H](O)[C@H]3O)[C@H]3COC(=O)[C@H]23)OCO4)cc(OC)c1O	active: 531 nM and active: 164 nM
c1ccc(COc2ncnc3c2ncn3CCCN2CCN(c3ccccn3)CC2)cc1	inconclusive [inhibitor, single point]
CCOc1ccc(C(=O)Nc2cccc(-c3nc4cccnc4s3)c2C)cc1OCC	inactive
COc1ccccc1CNC(=O)C(=O)c1cn(CC(=O)N2CCCC2)c2ccccc12	inconclusive [inhibitor, single point]
O=C1CS/C(=C\[N+](=O)[O-])N1c1ccccc1	inconclusive [inhibitor, partial curve, poor fit]
COc1ccc2c(c1)c(C(=O)N/N=C/c1cn(C)c3ccccc13)c(C)n2C	inconclusive [inhibitor, single point]
CC(Sc1n[nH]c(N)n1)C(=O)Nc1ccc(Cl)cn1 (stereo not given)	inactive
COCCn1c(SCC(=O)Nc2ccc(OC)c(S(N)(=O)=O)c2)nc2ccccc21	active: 16.4 µM
C=CCNC(=O)/C=C/c1c(F)cccc1Cl	inactive
Cc1cc(C(=O)NCc2nc(-c3ccccc3NC(=O)C3CCCO3)oc2C)nc(C)n1 (stereo not given)	inactive
CC(NCC(=O)Nc1ccccc1C(=O)NC1CC1)c1ccc(Cl)cc1 (stereo not given)	inconclusive [inhibitor, single point]
O=C(O)c1cccc(NC(=S)NC(=O)c2ccncc2)c1	inconclusive [inhibitor, single point]
O=C(c1ccccc1Cl)N(Cc1ccccc1F)N1C(=O)CCCC1=O	inactive
CNc1nn(-c2cccc(Cl)c2)nc1N	inconclusive [inhibitor, full curve]
CC(C)(C)NS(=O)(=O)c1ccc(NC(=S)NC(=O)C2CC2)cc1	inconclusive [inhibitor, single point]
c1ccc(CSc2ccc(-c3ccccn3)nn2)nc1	inconclusive [inhibitor, single point]
COC(=O)CNC(=O)CSc1nc2c(sc(=S)n2-c2ccccc2)c(=O)[nH]1	inactive
CC(C)=CCOc1ccc2c(C)c(CC(=O)N3C[C@H]4C[C@@H](C3)c3cccc(=O)n3C4)c(=O)oc2c1C	inconclusive [inhibitor, partial curve]
